Reference: PubChem BioAssay AID504333 (National Center for Advancing Translational Sciences (NCATS), 2011)
The campaign covered roughly 360,000 compounds. About 16,000 (4.4%) were called active. Inconclusive means that the source gave no clear call. Such entries were picked first, then a sample of the others. Calls come from the whole dose curve; as a rule, active = well fitted inhibition curve with a large enough effect; inconclusive = small, poorly fitted or top-dose-only effect; inactive = no such curve, though single readings can be large or run the other way. Where the call is inconclusive, the potency comes from a doubtful curve fit.

Each compound was assayed against Bromodomain adjacent to zinc finger domain protein 2B (Homo sapiens) (UniProt Q9UIF8) (assay: qHTS Assay for Inhibitors of BAZ2B). Conditions: AlphaScreen BAZ2B-H3K14Ac peptide displacement; activity change, negative = inhibition: at 114 µM (top of the series) unless noted.
Method in brief: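 Compounds, titrated to a top concentration of 110 uM, were incubated 30 min at room temperature with preformed BAZ2B/acetyl-K14 H3 peptide complex (50 nM each). Proximity signal was measured by AlphaScreen after 20 min with beads.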
% is set by controls: 0 for no effect and ±100 for the full control effect; potency is the fitted concentration of half-maximal effect; tags give direction and shape of the fitted curve.
Note: nearly all actives have a fitted effect of over 60% in size.

Sequence of UniProt Q9UIF8 (Q9UIF8 whole entry, looked up, the tested form may be a part): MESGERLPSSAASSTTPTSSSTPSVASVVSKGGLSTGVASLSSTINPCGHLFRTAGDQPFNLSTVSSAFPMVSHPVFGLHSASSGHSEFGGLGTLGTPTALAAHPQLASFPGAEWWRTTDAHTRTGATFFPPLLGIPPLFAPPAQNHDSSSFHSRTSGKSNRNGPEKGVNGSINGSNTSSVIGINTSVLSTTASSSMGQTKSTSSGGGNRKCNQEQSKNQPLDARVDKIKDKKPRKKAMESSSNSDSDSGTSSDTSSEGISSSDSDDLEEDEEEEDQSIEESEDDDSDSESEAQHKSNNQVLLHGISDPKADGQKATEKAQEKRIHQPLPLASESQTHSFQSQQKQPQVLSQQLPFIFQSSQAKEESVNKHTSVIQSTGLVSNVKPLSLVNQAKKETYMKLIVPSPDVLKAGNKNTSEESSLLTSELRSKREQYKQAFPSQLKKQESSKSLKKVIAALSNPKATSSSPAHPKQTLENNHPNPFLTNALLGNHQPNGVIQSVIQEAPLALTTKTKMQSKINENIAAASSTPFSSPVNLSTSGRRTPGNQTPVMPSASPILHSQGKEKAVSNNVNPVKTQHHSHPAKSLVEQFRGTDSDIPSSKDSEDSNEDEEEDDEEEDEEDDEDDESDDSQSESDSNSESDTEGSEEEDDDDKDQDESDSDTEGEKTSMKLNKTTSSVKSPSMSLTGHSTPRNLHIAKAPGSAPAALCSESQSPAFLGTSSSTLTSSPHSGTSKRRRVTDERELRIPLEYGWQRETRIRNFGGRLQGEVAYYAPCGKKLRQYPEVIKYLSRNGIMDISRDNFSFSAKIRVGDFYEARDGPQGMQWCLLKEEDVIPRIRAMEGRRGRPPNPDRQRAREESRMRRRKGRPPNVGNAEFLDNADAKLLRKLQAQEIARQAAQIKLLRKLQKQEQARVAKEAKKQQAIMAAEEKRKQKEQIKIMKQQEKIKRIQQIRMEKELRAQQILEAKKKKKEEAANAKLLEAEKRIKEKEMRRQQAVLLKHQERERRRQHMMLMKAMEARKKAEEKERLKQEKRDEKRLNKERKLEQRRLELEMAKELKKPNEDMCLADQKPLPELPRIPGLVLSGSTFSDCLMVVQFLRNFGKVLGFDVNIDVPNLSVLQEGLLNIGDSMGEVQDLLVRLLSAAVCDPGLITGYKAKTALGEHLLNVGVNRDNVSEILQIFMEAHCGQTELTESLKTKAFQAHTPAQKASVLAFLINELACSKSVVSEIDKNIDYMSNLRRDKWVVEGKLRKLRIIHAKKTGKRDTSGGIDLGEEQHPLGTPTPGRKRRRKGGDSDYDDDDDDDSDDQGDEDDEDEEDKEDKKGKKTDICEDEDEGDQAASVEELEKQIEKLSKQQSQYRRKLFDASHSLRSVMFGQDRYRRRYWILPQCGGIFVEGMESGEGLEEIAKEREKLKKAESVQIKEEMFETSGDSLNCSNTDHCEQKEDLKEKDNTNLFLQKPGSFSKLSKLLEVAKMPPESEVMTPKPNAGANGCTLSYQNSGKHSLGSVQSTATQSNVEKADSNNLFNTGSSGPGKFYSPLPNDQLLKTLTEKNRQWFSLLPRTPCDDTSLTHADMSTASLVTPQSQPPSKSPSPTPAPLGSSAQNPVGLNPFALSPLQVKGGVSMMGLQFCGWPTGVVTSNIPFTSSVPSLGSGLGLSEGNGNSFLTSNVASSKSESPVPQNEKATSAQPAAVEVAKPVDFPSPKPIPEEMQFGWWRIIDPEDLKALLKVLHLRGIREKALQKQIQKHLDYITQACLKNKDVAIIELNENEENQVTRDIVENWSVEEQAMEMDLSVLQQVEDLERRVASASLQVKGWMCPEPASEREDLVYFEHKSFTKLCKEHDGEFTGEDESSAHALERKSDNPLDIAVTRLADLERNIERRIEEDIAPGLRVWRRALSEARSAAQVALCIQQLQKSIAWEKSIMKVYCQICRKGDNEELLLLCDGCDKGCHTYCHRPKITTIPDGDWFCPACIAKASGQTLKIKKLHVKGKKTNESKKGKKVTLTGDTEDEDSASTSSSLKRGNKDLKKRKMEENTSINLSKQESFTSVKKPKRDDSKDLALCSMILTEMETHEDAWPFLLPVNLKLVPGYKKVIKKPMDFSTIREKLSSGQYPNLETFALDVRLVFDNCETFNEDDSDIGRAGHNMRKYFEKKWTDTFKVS

SMILES | Potency | activity change, negative = inhibition
CCOC(=O)C1=C(N)Oc2ccc3ccccc3c2C1c1ccc(O)cc1 (stereo not given) | inconclusive: 25.1 µM [inhibitor, full curve] | 
C#CCOCCOCCOCCNc1nc(N2CCN(C(=O)CCCCCCCCCCNC(=O)Cn3cc(CCCCCN)nn3)CC2)nc(N2CCN(C(=O)CCCCCCCCCCNC(=O)[C@@H](CCSC)n3cc(CCO)nn3)CC2)n1 | inconclusive: 89.1 µM [inhibitor, single point] | 
Cc1ccc(OCCCCNC2CCCC(C)C2C)c(C)c1 (stereo not given) | active: 22.4 µM | 
Cc1ccnc(-n2sc3ccccc3c2=O)n1 | active: 25.1 µM | 
CCCCCCc1ccc(O)cc1O | inconclusive: 79.4 µM [inhibitor, single point] | 
Cc1ccc(NC(=O)Cn2ncc(Cl)c(Cl)c2=O)cc1S(=O)(=O)N1CCCCC1 |  | inactive: 0.345%
COc1ccc(OC)c(NS(=O)(=O)c2ccc(-c3cc(C)no3)s2)c1 | inconclusive: 70.8 µM [inhibitor, single point] | 
O=C(C1CCN(S(=O)(=O)Cc2ccccc2)CC1)N1CCN(c2ccccc2)CC1 |  | inactive: 49.3%
COc1ccc2c(c1)Sc1ccccc1N2CCN(C)C | active: 25.1 µM | 
COc1ccc(Nc2ccc(S(=O)(=O)N3CCCCCC3)cc2[N+](=O)[O-])cc1 | active: 10 µM | 
Cc1[nH]n(-c2ccc(Br)cc2)c(=O)c1/C=N/NC(=O)c1ccccc1 | active: 31.6 µM | 
Cc1cccc(NC(=O)Nc2cc(C)cc(C)n2)c1 | inconclusive: 100 µM [inhibitor, single point] | 
COc1ccc(OC)c(-c2csc(NC(=O)C3c4ccccc4Oc4ccccc43)n2)c1 | inconclusive: 70.8 µM [inhibitor, single point] | 
CCOC(=O)CSc1nnc(CNc2nc(-c3ccccc3)cs2)n1C | inconclusive: 89.1 µM [inhibitor, single point] | 
Cc1ccc(C(=O)N2CCN(c3ccc(NC(=O)c4ccc(Br)o4)cc3)CC2)cc1 | inconclusive: 44.7 µM [inhibitor, partial curve] | 
Cc1ccc(C(CC(=O)NCc2ccco2)c2ccc(OC(C)C)cc2)cc1 (stereo not given) | inconclusive: 79.4 µM [inhibitor, single point] | 
Cc1ccc(OCC(=O)Nc2ccc3nc(SCC(=O)N4CCOCC4)sc3c2)cc1 |  | inactive: -9.78%
Cc1cc(C(=O)COC(=O)/C=C/c2ccc(F)cc2)c(C)n1C | inconclusive: 44.7 µM [inhibitor, partial curve] | 
CN(Cc1ccccc1)CC(O)COc1ccc(CNCc2nccn2C)cc1 (stereo not given) | active: 56.2 µM | 
C=CCOc1ccc(C2NC(=S)NC3=C2CCc2ccccc23)cc1 (stereo not given) | inconclusive: 22.4 µM [inhibitor, full curve, poor fit] | 
CC(C)(C)OC(=O)N/N=C\c1cccnc1 |  | inactive: -31%
O=C(CNC(=O)c1ccc2c(c1)OCCO2)N/N=C/c1ccc(Cl)cc1 | inconclusive: 79.4 µM [inhibitor, single point] | 
CCc1ccccc1Nc1nc2ccccc2c2nncn12 |  | inactive: 8.56%

SMILES | Potency | activity change, negative = inhibition
CCc1ccc(S(=O)(=O)c2cn(Cc3ccccc3)c3cc(F)c(F)cc3c2=O)cc1 |  | inactive: -8.22%
O=C(C1CC1)N1CCC(c2nc(-c3ccc(S(=O)(=O)N4CCCC4)cc3)no2)CC1 | inconclusive: 12.6 µM [inhibitor, single point] | 
O=C(N/N=C/c1cccnc1)c1[nH]ncc1Br |  | inactive: -8.51%
COc1ccc(C(=O)Nc2ccc(-n3nncc3-c3ccccc3)cc2)cc1OC | inconclusive: 15.8 µM [inhibitor, full curve] | 
COc1ccc(C(=O)/C=C/c2ccc3c(c2)OCCO3)cc1 | inconclusive: 0.794 µM [inhibitor, full curve] | 
Cc1nnc(NC(=O)c2ccc(S(=O)(=O)N3CC(C)OC(C)C3)cc2)o1 (stereo not given) | active: 25.1 µM | 
COc1cc(OC)cc(-c2cc3nc(C)c(CCC(=O)NCc4ccc(Cl)cc4)c(C)n3n2)c1 | inconclusive: 89.1 µM [inhibitor, single point] | 
O=C(CSc1ncccc1-c1nc2ccccc2[nH]1)N1CCN(c2ccccc2F)CC1 |  | inactive: -8.18%
Cc1cccc(NC(=O)C2CCC(CNS(=O)(=O)c3ccc(Br)s3)CC2)c1 (stereo not given) |  | inactive: 2.06%
Cc1ccc(OCC(=O)Nc2ccc(Cl)c(-c3nc4ncccc4o3)c2)c(C)c1 |  | inactive: -10%
Cc1cc(C)cc(Nc2nc(-c3ccc(S(=O)(=O)N4CCCC4)cc3)cs2)c1 | inconclusive: 44.7 µM [inhibitor, partial curve] | 
CN1CCN(c2ccccc2NC(=O)c2ccc(-c3ccccc3[N+](=O)[O-])o2)CC1 | inconclusive: 50.1 µM [inhibitor, partial curve] | 
Cc1n[nH]c(C)c1CCCCOc1ccccc1[N+](=O)[O-] | inconclusive: 50.1 µM [inhibitor, partial curve] | 
Cc1ccc(C2CN(C)C3(C(=O)Nc4ccccc43)C23COc2ccccc2C3=O)cc1 (stereo not given) | inconclusive: 70.8 µM [inhibitor, single point] | 
CCOc1ccccc1NC1c2ccccc2C(=O)N1Cc1ccco1 (stereo not given) | inconclusive: 50.1 µM [inhibitor, partial curve] | 
COc1ccccc1Nc1nnc(SCC(=O)c2cc(C)n(CC3CCCO3)c2C)s1 (stereo not given) | inconclusive: 35.5 µM [inhibitor, full curve, poor fit] | 
O=C(NCc1ccco1)C12CC3CC(C1)CC(C(=O)NCc1ccco1)(C3)C2 |  | inactive: -0.978%
Fc1ccc(N/N=C2/CC(c3ccccc3)Oc3ccccc32)c(F)c1 (stereo not given) | inconclusive: 79.4 µM [inhibitor, single point] | 
O=C(Nc1ccc(S(=O)(=O)N2CCOCC2)cc1)c1ccc2c(c1)OCO2 | inconclusive: 44.7 µM [inhibitor, partial curve] | 
COc1cc(/C=N/NS(=O)(=O)c2ccc(C(C)(C)C)cc2)cc([N+](=O)[O-])c1O | inconclusive: 50.1 µM [inhibitor, partial curve] | 
CCOC(=O)COc1ccccc1C1C(C(=O)OC)=C(C)NC2=C1C(=O)c1ccccc12 (stereo not given) | active: 39.8 µM | 
COc1ccc(Nc2nc(N/N=C/c3ccc(N(C)C)cc3)nc(C)c2[N+](=O)[O-])cc1 | inconclusive: 44.7 µM [inhibitor, partial curve] | 
